Assay results from patent publication US20250387474A1 (MEDICENNA THERAPEUTICS, published 2025).

Key:
[1] = biological target: T1, IL-2Rβγ on Jurkat IL2Rβγ bioassay cells (UniProt P14784 27-551; P31785 23-369, limits assumed); test: cell-based or functional assay
T1 sequence (looked up) 1: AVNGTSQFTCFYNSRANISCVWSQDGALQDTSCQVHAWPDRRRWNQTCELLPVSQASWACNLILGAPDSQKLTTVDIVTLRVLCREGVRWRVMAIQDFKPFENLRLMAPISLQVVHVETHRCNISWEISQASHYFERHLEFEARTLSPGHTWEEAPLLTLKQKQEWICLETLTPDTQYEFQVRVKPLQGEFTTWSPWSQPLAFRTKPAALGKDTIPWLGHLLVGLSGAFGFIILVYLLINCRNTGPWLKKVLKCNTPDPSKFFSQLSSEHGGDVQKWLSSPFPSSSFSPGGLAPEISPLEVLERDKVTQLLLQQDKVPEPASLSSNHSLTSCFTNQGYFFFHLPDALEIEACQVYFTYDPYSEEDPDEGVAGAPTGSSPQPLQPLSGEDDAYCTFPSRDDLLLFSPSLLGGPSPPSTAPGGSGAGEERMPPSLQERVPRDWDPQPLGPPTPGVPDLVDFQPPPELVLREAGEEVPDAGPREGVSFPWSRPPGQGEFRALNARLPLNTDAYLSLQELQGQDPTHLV
T1 sequence (looked up) 2: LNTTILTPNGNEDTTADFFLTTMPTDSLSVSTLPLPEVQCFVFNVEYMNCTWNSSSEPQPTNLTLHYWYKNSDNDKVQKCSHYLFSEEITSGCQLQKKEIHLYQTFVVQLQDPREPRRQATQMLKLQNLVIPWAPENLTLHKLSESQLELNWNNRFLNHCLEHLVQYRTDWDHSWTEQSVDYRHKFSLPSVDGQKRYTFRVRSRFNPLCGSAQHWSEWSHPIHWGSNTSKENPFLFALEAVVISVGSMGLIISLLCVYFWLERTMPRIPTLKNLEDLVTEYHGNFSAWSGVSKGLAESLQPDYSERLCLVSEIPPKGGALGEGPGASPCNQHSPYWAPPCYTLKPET

human IL-2R alpha (CD25) [2] = biological target: T2, human IL-2R alpha (CD25) (human, UniProt P01589 22-213); test: BLI (Octet)
T2 construct: also called IL-2Rα; IL2Rα
T2 sequence (looked up): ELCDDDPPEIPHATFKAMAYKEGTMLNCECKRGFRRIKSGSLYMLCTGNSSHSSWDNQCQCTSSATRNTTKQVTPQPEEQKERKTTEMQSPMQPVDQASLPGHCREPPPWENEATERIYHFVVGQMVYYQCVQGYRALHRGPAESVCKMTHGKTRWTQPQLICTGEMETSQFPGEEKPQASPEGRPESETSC

human IL-2R beta (CD122) [3] = biological target: T3, human IL-2R beta (CD122) (human, UniProt P14784 27-239); test: SPR (Example 5), human receptor
T3 construct: also called IL-2Rβ; IL2Rβ
T3 sequence (looked up): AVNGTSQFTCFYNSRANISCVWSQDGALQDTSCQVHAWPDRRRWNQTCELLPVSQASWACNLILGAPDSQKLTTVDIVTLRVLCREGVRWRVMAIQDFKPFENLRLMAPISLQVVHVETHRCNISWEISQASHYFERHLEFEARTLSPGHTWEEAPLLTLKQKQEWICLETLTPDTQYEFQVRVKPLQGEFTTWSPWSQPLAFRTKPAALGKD

human IL-13Rα2 [4] = biological target: T4, human IL-13Rα2 (human, UniProt Q14627 27-343); test: SPR (Example 5), human receptor
T4 construct: also called Human IL-13 R alpha 2 Protein; IL-13 decoy receptor
T4 sequence (looked up): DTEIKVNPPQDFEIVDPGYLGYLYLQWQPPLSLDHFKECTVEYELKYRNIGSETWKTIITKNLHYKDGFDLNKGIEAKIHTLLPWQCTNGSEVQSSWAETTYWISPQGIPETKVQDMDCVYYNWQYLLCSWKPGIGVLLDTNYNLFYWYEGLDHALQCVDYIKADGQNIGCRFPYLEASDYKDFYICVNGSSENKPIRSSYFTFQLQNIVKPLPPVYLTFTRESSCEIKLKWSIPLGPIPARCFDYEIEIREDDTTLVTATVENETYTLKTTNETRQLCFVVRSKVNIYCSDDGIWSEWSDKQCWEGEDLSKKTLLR

human IL-13Rα1 [5] = biological target: T5, human IL-13Rα1 (human, UniProt P78552 22-343); test: SPR (Example 5), human receptor
T5 construct: also called Human IL-13 R alpha 1 Protein; IL-13 functional receptor
T5 sequence (looked up): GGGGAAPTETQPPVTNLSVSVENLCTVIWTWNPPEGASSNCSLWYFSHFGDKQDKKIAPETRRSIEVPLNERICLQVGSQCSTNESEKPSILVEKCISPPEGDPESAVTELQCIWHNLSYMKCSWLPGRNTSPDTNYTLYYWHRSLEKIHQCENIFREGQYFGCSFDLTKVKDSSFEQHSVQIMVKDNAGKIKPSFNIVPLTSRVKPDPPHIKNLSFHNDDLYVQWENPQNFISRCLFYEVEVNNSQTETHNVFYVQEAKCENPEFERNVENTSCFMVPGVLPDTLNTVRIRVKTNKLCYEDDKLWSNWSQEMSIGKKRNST

human IL-2R beta (CD122) [6] = biological target: T3, human IL-2R beta (CD122); test: SPR (Example 5), human receptor; remark: listed apart in the source
human IL-13Rα2 [7] = biological target: T4, human IL-13Rα2; test: SPR (Example 5), human receptor; remark: listed apart in the source
human IL-2R alpha (CD25) [8] = biological target: T2, human IL-2R alpha (CD25); test: SPR (Example 5), human receptor
human IL-13Rα2 [9] = biological target: T4, human IL-13Rα2; test: SPR (Example 5), receptor concentrations 1.9 to 250 nM
[10] = biological target: T6, mouse CD3 epitopes (CD3epsilon/delta) (mouse, UniProt P22646 22-108; P04235 22-105); test: SPR (Example 5), concentrations 7.8 to 1000 nM
T6 sequence (looked up) 1: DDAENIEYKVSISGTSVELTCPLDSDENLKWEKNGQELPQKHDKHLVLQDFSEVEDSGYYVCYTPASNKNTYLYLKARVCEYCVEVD
T6 sequence (looked up) 2: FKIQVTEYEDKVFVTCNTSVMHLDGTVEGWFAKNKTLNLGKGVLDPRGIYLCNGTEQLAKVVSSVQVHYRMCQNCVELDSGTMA

human IL-13Rα1 [11] = biological target: T5, human IL-13Rα1; test: SPR, construct captured on anti-human IgG (Fc) antibody on a CM5 chip, human receptor as analyte
human IL-13Rα2 [12] = biological target: T4, human IL-13Rα2; test: as above
[13] = biological target: human CD3 epitopes (CD3epsilon/delta) (human, UniProt P07766 23-126; P04234 22-105); test: SPR (Example 5) on human CD3 epsilon delta heterodimer
[14] = biological target: T6, mouse CD3 epitopes (CD3epsilon/delta); test: SPR (Example 5) on mouse CD3 epsilon delta heterodimer, sensorgrams in Figure 44B

Chain of UniProt P07766 (P07766 23-126, stated change not applied, chain 1 of 2): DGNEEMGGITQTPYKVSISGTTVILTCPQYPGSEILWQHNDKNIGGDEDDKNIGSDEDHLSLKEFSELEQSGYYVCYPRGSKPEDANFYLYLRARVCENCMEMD
Chain of UniProt P07766 (P04234 22-105, stated change not applied, chain 2 of 2, further chain): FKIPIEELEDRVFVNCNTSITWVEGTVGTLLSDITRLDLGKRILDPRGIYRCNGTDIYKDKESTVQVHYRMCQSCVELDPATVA

B1: MDNA19 (MDNA109FEAA-Fc, 2:1) (Fc fusion)
chain: APTSSSTKKTQLQLEHLLLDLQMILNGINNYKNPKLTRMLTAKFYMPKKATELKHLQCLEEALKPLEEVLNLAQSKNFHFDPRDVVSNINVFVLELKGSETTFMCEYADETATIVEFLNRWITFCQSIISTLTGGGGSGGGGSGGGGS[sequence of human IgG1 Fc with changes not given]
notes: also called MDNA19/MDNA109FEAA^C125-Fc
Jurkat IL2Rβγ bioassay (luciferase), EC50 [1]: 0.11 nM
binding result (human IL-2R alpha (CD25) [2]): no binding (tested: 2000 nM)

B3: MDNA109FEAA^C125-Fc-MDNA132^L39/Q111 (Fc fusion)
chain: APTSSSTKKTQLQLEHLLLDLQMILNGINNYKNPKLTRMLTAKFYMPKKATELKHLQCLEEALKPLEEVLNLAQSKNFHFDPRDVVSNINVFVLELKGSETTFMCEYADETATIVEFLNRWITFCQSIISTLTGGGGSGGGGSGGGGS[sequence of human IgG1 Fc with changes not given]GGGSGGGGSGGGGSPGPVPPSTAHRELIEELVNITQNQKAPLCNGSMVWSINLTAGMYCAALESLINVSGCSAIEKTQRMLSGFCPHKVSAGQFSSLHVTGRKIEVAQFVKDLLLHLKKLFKEGQFN
Kd (human IL-2R beta (CD122) [3]): 8.01 nM
Kd (human IL-13Rα2 [4]): 1.9 nM

B5: Mouse AntiCD3-MDNA132 (other)
heavy 1: EVQLVESGGGLVQPGKSLKLSCEASGFTFSGYGMHWVRQAPGRGLESVAYITSSSINIKYADAVKGRFTVSRDNAKNLLFLQMNILKSEDTAMYYCARFDWDKNYWGQGTMVTVSSASTKGPSVFPLAPSSKSTSGGTAALGCLVKDYFPEPVTVSWNSGALTSGVHTFPAVLQSSGLYSLSSVVTVPSSSLGTQTYICNVNHKPSNTKVDKKVEPKSCDKTHTCPPCPAPELLGGPSVFLFPPKPKDTLMISRTPEVTCVVVDVSHEDPEVKFNWYVDGVEVHNAKTKPREEQYASTYRVVSVLTVLHQDWLNGKEYKCKVSNKALPAPIEKTISKAKGQPREPQVYTLPPCRDELTKNQVSLWCLVKGFYPSDIAVEWESNGQPENNYKTTPPVLDSDGSFFLYSKLTVDKSRWQQGNVFSCSVMHEALHNHYTQKSLSLSPGGGGGSGGGGSGGGGSPGPVPPSTAHRELIEELVNITQNQKAPLCNGSMVWSINLTAGMYCAALESLINVSGCSAIEKTQRMLSGFCPHKVSAGQFSSLHVTGRKIEVAQFVKDLLLHLKKLFKEGQFN
heavy 2: EVQLVESGGGLVQPGKSLKLSCEASGFTFSGYGMHWVRQAPGRGLESVAYITSSSINIKYADAVKGRFTVSRDNAKNLLFLQMNILKSEDTAMYYCARFDWDKNYWGQGTMVTVSSASTKGPSVFPLAPSSKSTSGGTAALGCLVKDYFPEPVTVSWNSGALTSGVHTFPAVLQSSGLYSLSSVVTVPSSSLGTQTYICNVNHKPSNTKVDKKV[sequence of human IgG1 Fc with changes not given]
light: DIQMTQSPSSLPASLGDRVTINCQASQDISNYLNWYQQKPGKAPKLLIYYTNKLADGVPSRFSGSGSGRDSSFTISSLESEDIGSYYCQQYYNYPWTFGPGTKLEIKRTVAAPSVFIFPPSDEQLKSGTASVVCLLNNFYPREAKVQWKVDNALQSGNSQESVTEQDSKDSTYSLSSTLTLSKADYEKHKVYACEVTHQGLSSPVTKSFNRGEC
notes: also called mouse anti-CD3-MDNA132^L39/Q111 (1:1 KIH); mCD3-MDNA132 (KiH, 1:1)
Kd (human IL-13Rα2 [9]): 4.5 nM
Kd [10]: 97.6 nM
binding result (human IL-13Rα1 [11]): no binding (tested: 2000 nM)
Kd (human IL-13Rα2 [12]): 3.71 nM
binding result [13]: no binding
Kd [14]: 50.9 nM

Further lines, results first:

binding result (human IL-2R alpha (CD25) [2]): no binding (tested: 2000 nM)
B2: VivoTag800-MDNA19 (Fc fusion)
chain: APTSSSTKKTQLQLEHLLLDLQMILNGINNYKNPKLTRMLTAKFYMPKKATELKHLQCLEEALKPLEEVLNLAQSKNFHFDPRDVVSNINVFVLELKGSETTFMCEYADETATIVEFLNRWITFCQSIISTLTGGGGSGGGGSGGGGS[sequence of human IgG1 Fc with changes not given]
notes: also called VivoTag800 labelled MDNA19

binding result (human IL-13Rα1 [5]): no binding (tested: 400 nM)
Kd (human IL-2R beta (CD122) [6]): 6.85 nM
Kd (human IL-13Rα2 [7]): 1.88 nM
Kd (human IL-2R alpha (CD25) [8]): 18.3 nM
B4: H9T-Fc-MDNA132^L39/Q111 (Fc fusion)
IL-2 mutein (H9T) - Fc - IL-13 mutein (MDNA132) fusion chain: APTSSSTKKTQLQLEHLLLDLQMILNGINNYKNPKLTRMLTFKFYMPKKATELKHLQCLEEELKPLEEVLNLAQSKNFHFDPRDVVSNINVFVLELKGSETTFMCEYADETATIVEFLNRWITFCTSIISTLTGGGGSGGGGSGGGGS[sequence of human IgG1 Fc with changes not given]GGGSGGGGSGGGGSPGPVPPSTAHRELIEELVNITQNQKAPLCNGSMVWSINLTAGMYCAALESLINVSGCSAIEKTQRMLSGFCPHKVSAGQFSSLHVTGRKIEVAQFVKDLLLHLKKLFKEGQFN
notes: also called H9T-Fc-MDNA132 (2:1:2)

Where two headings read alike, the source gives them in different places. One block for each binder: values may come before it.
